Reference: PubChem BioAssay AID1963576 (National Center for Advancing Translational Sciences (NCATS), 2024)
The campaign covered roughly 46,000 compounds. About 60 (0.1%) were called active. Not shown: some 3% with an inconclusive outcome. The call rests on the fitted dose curve; in most records, active means well fitted inhibition curve with a large enough effect; inconclusive means small, poorly fitted or top-dose-only effect; inactive means no such curve, though single readings can be large or run the other way. This is one part of the list.

test: Primary qHTS assay for Inhibitors of ovarian cancer metastasis using an organotypic tumor microenvironment (TME) model.; further: nearly all actives have a fitted effect of over 65% in size;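 on activity change, negative = inhibition: plate controls were DMSO wells for no effect and tomatine positive control wells for full effect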; conditions: SKOV3ip1-GFP adhesion/invasion on 3D omental model, fluorescence; series mostly up to 45.8 µM; activity change, negative = inhibition: at the top concentration
Method in brief: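 Primary human omental fibroblast/mesothelial 3D culture pre-formed 48 h. SKOV3ip1-GFP cells added with compounds (0.36-46 umol/L), incubated 2 h RT/16 h 37 C, fixed; GFP cells quantified at 488/509 nm.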

Row | Structure (SMILES) | activity change, negative = inhibition | outcome
1 | Cc1cc(C)c(NS(=O)(=O)c2cc(-c3onc(C)c3C)ccc2C)c(C)c1 | inactive: -8.98% | –
2 | CC(C)COC(=O)Cn1nnc2sc(-c3ccccc3)cc2c1=O | inactive: 0.178% | –
3 | COCCCNC(=O)CSc1nc2cc3c(cc2c(=O)n1CCCCCC(=O)NCc1ccc(OC)cc1)OCO3 | – | inactive
4 | CCCc1nnc(NC(=O)Cc2coc3ccc(C(C)C)cc23)s1 | inactive: -21.1% | –
5 | O=C(CSc1oc(-c2ccccc2)nc1S(=O)(=O)c1ccc(Cl)cc1)NC1CCCCC1 | inactive: -7.06% | –
6 | COc1ccc(-n2nnc(-c3nsc(NC(=O)c4ccc(C)c(C)c4)n3)c2C)cc1Cl | inactive: 1.91% | –
7 | Cc1cccc(N2CCN(C(=O)c3ccc4c(Cl)c5c(nc4c3)CCCC5)CC2C)c1 (stereo unspecified) | – | inactive
8 | COc1ccc(NC(=O)Cn2nnc(C(=O)NCc3ccc4c(c3)OCO4)c2N)cc1 | – | inactive
9 | O=C(Nc1cccc(C(F)(F)F)c1)c1cc(S(=O)(=O)N2CCCC2)c[nH]1 | inactive: 8.3% | –
10 | COc1ccccc1-c1noc(-c2ccc(NCc3ccco3)c([N+](=O)[O-])c2)n1 | – | inactive
11 | O=C(C1CCC(Cn2c(=O)c3sccc3n(Cc3ccccc3)c2=O)CC1)N1CCCCC1 (stereo unspecified) | inactive: 11.4% | –
12 | Cc1ccc(C)c(N2CCN(C(=O)CCNS(=O)(=O)c3ccc4c(c3)CCN4C(=O)C3CC3)CC2)c1 | inactive: -3.58% | –
13 | CC(C)C(=O)Oc1ccc(CO)cc1[C@H](CCN(C(C)C)C(C)C)c1ccccc1 | inactive: -13.7% | –
14 | Cc1ccc2cccc(NC(=O)c3cccc4c(Cl)cccc34)c2n1 | – | inactive
15 | Cc1ccc(-c2cc(-c3coc4ccc(Cl)cc4c3=O)c3c(n2)-c2ccccc2OC3)cc1 | inactive: 1.84% | –
16 | O=C(NCc1ccccc1Cl)c1cnc(N2CCOCC2)c2ccccc12 | inactive: 25% | –
17 | CCN(Cc1ccccc1)Cc1c(O)ccc2c(=O)c(-c3ccc(Cl)cc3)coc12 | inactive: -19.3% | –
18 | CCOc1ccc(NC(=O)CCc2nc3cccnc3n2-c2ccccc2)cc1 | inactive: -6.58% | –
19 | COc1ccc(OC)c(NC(=O)CC2C(=O)NCCN2C(=O)C(F)(F)F)c1 (stereo unspecified) | inactive: -15.8% | –
20 | CCc1cccc(CC)c1NC(=O)C(Cc1ccccc1)NS(=O)(=O)c1cccc2nsnc12 (stereo unspecified) | inactive: 1.54% | –
21 | O=C(Nc1nc2ccc(Cl)cc2s1)c1cc(=O)c2ccccc2o1 | inactive: 1.58% | –
22 | CCc1ccc(NC(=O)CSc2nc3c(oc4ccccc43)c(=O)n2-c2cccc(C)c2)cc1 | inactive: -6.61% | –
23 | COc1ccc(S(=O)(=O)NCCS(=O)(=O)N2CCN(c3ccccc3)CC2)cc1OC | inactive: 15.4% | –

Row | Structure (SMILES) | activity change, negative = inhibition | outcome
24 | Cc1ccc(NC(=O)c2oc3ccccc3c2NC(=O)c2ccc(F)c(F)c2)cc1 | – | inactive
25 | COc1ccc(NC(=O)c2oc3ccccc3c2NC(=O)C23CC4CC(CC(C4)C2)C3)c(OC)c1 | inactive: -4.87% | –
26 | COc1ccc2c(c1)c(CC(=O)Nc1ccc(C(C)=O)cc1)c(C)n2C(=O)c1ccc(Cl)cc1 | inactive: 0.0448% | –
27 | CCN1C(C(=O)c2ccccc2)=C(OC(=O)COc2ccc(OC)cc2)c2ccccc2S1(=O)=O | inactive: -8.34% | –
28 | CN1CCc2c(sc(NC(=O)CSc3ccc(F)cc3)c2-c2nc3ccccc3s2)C1 | inactive: -15.8% | –
29 | COc1cccc(C(=O)NC(=NCCc2c[nH]c3ccc(OC)cc23)Nc2nc(C)cc(C)n2)c1 | inactive: 4.22% | –
30 | CCc1cnc2c(c1SCc1ccccc1C)c(=O)n(C)c(=O)n2C | inactive: 4.37% | –
31 | Cc1ccc(NC(=O)c2ccc(CN3CCN(C)CC3)cc2)cc1Nc1nccc(-c2cccnc2)n1 | inactive: 4.52% | –
32 | Cc1ccc(CNC(=O)CCCCCn2c(=O)c3sccc3n(CC(=O)Nc3ccc(C)c(F)c3)c2=O)cc1 | inactive: 3.66% | –
33 | CC(C)CN(CCCNC(=O)c1cc(=O)[nH]c2ccc(S(=O)(=O)N3CCCC3)cc12)CC(C)C | – | inactive
34 | COc1ccc(-c2cn3nc(N4CCCC(C(=O)Nc5cccc(OC)c5)C4)sc3n2)cc1 (stereo unspecified) | inactive: -4.43% | –
35 | CCOCCCNC(=O)c1cc(Sc2cccc(Cl)c2)nc2ccccc12 | – | inactive
36 | COc1cc2c(cc1OC)n(CC(=O)c1cccc(Cl)c1)c(=O)n1nc(CCn3nc(C)cc3C)nc21 | inactive: 29.5% | –
37 | O=C(NCc1cccnc1)C(=O)NCC(c1cccnc1)N1CCN(c2ccc(F)cc2)CC1 (stereo unspecified) | inactive: -31.2% | –
38 | Cc1ccccc1C(=O)Nc1sc2c(c1C(=O)N1CCCCC1)CCC(C)C2 (stereo unspecified) | inactive: -27.5% | –
39 | COc1cccc(C(=O)N2c3ccc(C)cc3C(C)(c3ccccc3)CC2(C)C)c1 (stereo unspecified) | inactive: 6.98% | –
40 | COc1ccc(C2NC(=O)NC(C)=C2C(=O)Nc2ccccc2)cc1OC (stereo unspecified) | – | inactive
41 | O=C(CCN1C(=O)c2ccccc2Sc2ncccc21)Nc1ccc(F)cc1F | inactive: -3.21% | –
42 | COc1ccc(C(=O)Nc2nc3n(n2)C(c2ccccc2)C=C(c2ccccc2)N3)cc1 (stereo unspecified) | inactive: 1.31% | –
43 | COC(=O)c1ccc2c(c1)N(CC(=O)Nc1ccc(OC)c(Cl)c1)C(=O)c1ccccc1S2 | inactive: 19.7% | –
44 | Cc1ccc(-n2nc3c(N4CCCC(C(=O)NCc5ccc(Cl)cc5)C4)nnc(C)c3c2C)cc1 (stereo unspecified) | inactive: 10.6% | –
45 | CCOC(=O)c1ccc(NC(=O)CSc2cn(CC(=O)N3CCCC3)c3ccccc23)cc1 | – | inactive
46 | CCc1ccc(-c2cn3c(n2)sc2cc(C(=O)NCCC4=CCCCC4)ccc23)cc1 | inactive: -17.9% | –
